In PubChem BioAssay AID624296 (National Center for Advancing Translational Sciences (NCATS), 2012):
Hit rate of the full screen: of about 350,000 compounds, about 9,900 (2.8%) were called active. Inconclusive means that the source gave no clear call. Such entries were picked first, then a sample of the others. The call rests on the fitted dose curve; in most records, active means well fitted activation curve with a large enough effect; inconclusive means small, poorly fitted or top-dose-only effect; inactive means no such curve, though single readings can be large or run the other way. Potencies of inconclusive entries are left out as doubtful fits.

Experiment: A quantitative high throughput screen for small molecules that induce DNA re-replication in MCF 10a normal breast cells. Further: nearly all actives have a fitted effect of over 50% in size.
Details: MCF 10A DNA re-replication, Hoechst nuclear intensity, 48 h; series mostly up to 46.1 µM
Potency means the concentration at half of the fitted maximal effect; tags describe the fitted curve by direction and shape.

| SMILES | Potency |
| --- | --- |
| CC1CCOC(=O)C=CC=CC(=O)OC2CC3OC4C5OC5(C)C(O)CC4(COC(=O)C1O)C2(C)C31CO1 (stereo not drawn) | active: 0.231 µM |
| Cc1ccc(C)c(OCc2cc(C(=O)N3C[C@H]4C[C@@H](C3)c3cccc(=O)n3C4)no2)c1 | inconclusive [activator, partial curve, poor fit] |
| CC(C)CCNC(=O)c1c(N)n(CC2CCCO2)c2nc3ccccc3nc12 (stereo not drawn) | active: 2.31 µM |
| C/C(=N\N1CCCCCC1)c1c(O)n(-c2ccccc2C)c(=O)[nH]c1=O | inactive |
| COc1cc(/C=C2/SC(=S)N(Cc3ccccc3)C2=O)ccc1OCC(=O)O | inconclusive [activator, partial curve, poor fit] |
| CCOC(=O)N1CCN(CC(O)COCCC23CC4CC(CC(C4)C2)C3)CC1 (stereo not drawn) | inconclusive [activator, single point] |
| COC(=O)C1=C(c2ccc(OCc3ccccc3)cc2)C[C@@H]2CC[C@H]1N2C(=O)NCc1ccc(OC)c(OC)c1 | inconclusive [activator, single point] |
| C[C@H]1C/C=C/[C@H]2[C@H](O)[C@H](C)[C@@](C)(O)[C@H]3[C@H](Cc4ccccc4)NC(=O)[C@]32[C@H](O)/C=C/[C@](C)(O)C1 | inconclusive [activator, single point] |
| Cc1nccn1-c1c([N+](=O)[O-])c(=O)n(C)c2ccccc12 | active: 10.3 µM |
| Nc1c(C(=O)NCCCc2ccccc2)c2nc3ccccc3nc2n1Cc1cccs1 | inconclusive [activator, full curve, poor fit] |
| CCn1c(O)c(N=Nc2ccc(S(=O)(=O)N3CCOCC3)cc2)c(=O)n(CC)c1=S | inconclusive [activator, single point] |
| Cc1c(NS(=O)(=O)c2ccccc2)ccc([N+](=O)[O-])c1Cl | active: 20.6 µM |
| Cc1oc(/N=C/c2ccc3c(c2)OCO3)c(C#N)c1C | inconclusive [activator, single point] |
| O=c1[nH]c(=S)n(CCC2=CCCCC2)c(O)c1/C=N/N1CCOCC1 | active: 18.4 µM |
| C=CCn1c(O)c(C(C)=NCc2ccc3c(c2)OCO3)c(=O)[nH]c1=O | inconclusive [activator, single point] |
| O=[N+]([O-])c1ccc(N2CCNCC2)cc1NCc1ccco1 | inactive |
| O=C(O)CCCc1ccc(N(CCCl)CCCl)cc1 | inconclusive [activator, partial curve, poor fit] |
| CCCC/C(C)=C/[C@@H](NP(=O)(c1ccccc1)c1ccccc1)c1ccccc1 | inconclusive [activator, partial curve, poor fit] |
| CC(C)(C)c1ccc(C(=O)NC(=S)Nn2cnnc2)cc1 | inconclusive [activator, partial curve, poor fit] |
| CCCCCc1cc(O)c2c(c1)OC(C)(C)C1CC=C(C)CC21 (stereo not drawn) | active: 7.5 µM |
| CC(c1ccccc1)n1cncc1C(=O)N1CCCC1=O (stereo not drawn) | inactive |
| Nc1c(C(=O)NCCN2CCOCC2)c2nc3ccccc3nc2n1Cc1ccco1 | active: 6.51 µM |

| SMILES | Potency |
| --- | --- |
| C=C1C(=O)O[C@@H]2C[C@@H](C)[C@@H]3C=CC(=O)[C@@]3(C)[C@@H](O)[C@H]12 | active: 0.92 µM |
| N#CC1c2ccccc2-n2nncc2CN1Cc1cc(Cl)cc(Cl)c1 (stereo not drawn) | active: 6.51 µM |
| c1ncn(C23CC4CC(CC(C4)C2)C3)n1 | inconclusive [activator, partial curve, poor fit] |
| CN1CCC(OC(=O)c2ccc(Br)cc2)CC1 | inconclusive [activator, partial curve, poor fit] |
| CC(=O)c1c(C)n(CC2CCCO2)c2ccc(O)cc12 (stereo not drawn) | inconclusive [activator, single point] |
| NC(=O)C[N+]1(CC#CC(O)(c2ccccc2)c2ccccc2)CCCC1 | inconclusive [activator, single point] |
| CNC(=O)Nc1ccc(C(=O)N/N=C\C23CC[C@@H](O)CC2(O)CC[C@@H]2[C@@H]3CCC3(C)C(C4=CC(=O)OC4)CCC23O)cc1 (stereo partly drawn) | inactive |
| COc1ccc(CCN)cc1OC | inactive |
| O=C(c1ccc(Cl)cc1)C1CCCN(Cc2ccc3nonc3c2)C1 (stereo not drawn) | inconclusive [activator, single point] |
| COc1cc([C@@H]2c3cc4c(cc3[C@@H](OC)[C@H]3COC(=O)[C@H]23)OCO4)cc(OC)c1O | inconclusive [activator, full curve, poor fit] |
| CN1C(=O)NC(=O)/C(=C/c2ccc([N+](=O)[O-])s2)C1=O | inconclusive [activator, single point] |
| CCOc1ccc(N=Cc2c(O)n(Cc3ccccc3)c(=S)[nH]c2=O)cc1 | inactive |
| CN(C)c1ccc(/C=C2\CC3C4CC=C5CC(O)CCC5(C)C4CCC3(C)C2=O)cc1 (stereo not drawn) | inconclusive [activator, partial curve, poor fit] |
| Oc1cccc2cccnc12 | inconclusive [activator, full curve] |
| CC12CCC(O)CC1CCC1C2CCC2(C)C(C3=CC(=O)OC3)C(O)CC12O (stereo not drawn) | active: 2.06 µM |
| COc1cc(CN2CCN(C(=O)COc3ccccc3)CC2)cc(OC)c1OC | inconclusive [activator, single point] |
| O=c1[nH]c(=O)n(-c2ccc(F)cc2)c(O)c1C=Nc1ccccc1N1CCCC1 | inactive |
| O=c1[nH]c(=S)n(C2CC2)c(O)c1/C=N/Nc1ccccc1 | inconclusive [activator, partial curve, poor fit] |
| CCCN1CCCC2Cc3nc(N)ncc3CC21 (stereo not drawn) | inactive |
| CN(CC1COc2ccccc2O1)c1nc(-c2cccnc2)nc2ccccc12 (stereo not drawn) | inconclusive [activator, partial curve, poor fit] |
| CCc1ccc2c(c1)Sc1ccccc1CC2N1CCN(C)CC1 (stereo not drawn) | inconclusive [activator, single point] |
